Laboratory results from PMC6919601, “Identification of Plasmodium dipeptidyl aminopeptidase allosteric inhibitors by high throughput screening” (PLoS ONE, 2019).
About 230 (0.21%) of roughly 110,000 compounds showed an effect of 50% or more. The list shows a part of the results.

What follows are compounds tested against DPAP1 (Plasmodium falciparum, UniProt Q8IIJ9) (assay: primary screen, percent inhibition; read by cleavage of a fluorogenic dipeptide substrate; higher = more effect of the substance).
DPAP1, sequence (Q8IIJ9 whole entry, looked up): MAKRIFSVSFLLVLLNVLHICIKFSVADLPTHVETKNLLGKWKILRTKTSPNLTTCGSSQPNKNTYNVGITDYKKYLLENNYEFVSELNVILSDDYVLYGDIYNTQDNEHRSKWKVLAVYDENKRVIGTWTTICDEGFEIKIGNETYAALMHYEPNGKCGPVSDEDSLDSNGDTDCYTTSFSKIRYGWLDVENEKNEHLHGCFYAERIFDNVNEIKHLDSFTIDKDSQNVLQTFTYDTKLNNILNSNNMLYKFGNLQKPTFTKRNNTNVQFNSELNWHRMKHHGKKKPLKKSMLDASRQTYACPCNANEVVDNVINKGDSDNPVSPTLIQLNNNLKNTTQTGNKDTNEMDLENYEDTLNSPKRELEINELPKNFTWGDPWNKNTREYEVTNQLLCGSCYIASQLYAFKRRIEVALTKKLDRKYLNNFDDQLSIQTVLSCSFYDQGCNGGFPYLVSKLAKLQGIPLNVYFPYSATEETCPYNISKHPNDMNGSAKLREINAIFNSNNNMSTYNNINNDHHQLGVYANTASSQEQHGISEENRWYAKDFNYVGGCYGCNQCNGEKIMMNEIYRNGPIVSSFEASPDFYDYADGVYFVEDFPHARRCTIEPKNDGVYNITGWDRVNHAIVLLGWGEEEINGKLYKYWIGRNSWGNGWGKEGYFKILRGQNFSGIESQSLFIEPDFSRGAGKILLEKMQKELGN
Design: species or system P. falciparum D10 trophozoite lysates; single well
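Note: 30 min substrate incubation versus DMSO and 10 µM JCP410 controls.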

Compared with `CN1CCN(C2CC(=O)N(c3ccc(Cl)cc3Cl)C2=O)CC1` (stereo not shown), `O=C1C=C(Nc2ccc(Cl)cc2Cl)CC(c2ccco2)C1` (stereo not shown) is lower in “% Inhibition @ 10 uM” value: -2.07% for the first, -2.87% for the second.

First: S=C1Nc2cc(Cl)ccc2Sc2ccccc21
Second: O=C1Nc2ccc([N+](=O)[O-])c3cccc1c23
The “% Inhibition @ 10 uM” value of the first is higher: 4.11% for the first, 2.65% for the second.

Compared with `O=C(CCNC(=O)c1ccc(Br)o1)NC1CCCC1`, `O=C(NCC1CCCO1)c1ccc(CS(=O)(=O)Cc2ccccc2Cl)o1` (stereo not shown) is higher in “% Inhibition @ 10 uM” value: -5.64% for the first, -3.58% for the second.

Compared with `O=C(c1ccc(Br)cc1)c1sc2nccc3c2c1N=CN3c1ccccc1`, `N#CC1=C(N)N(c2cccnc2)C2=C(C(=O)CC(c3ccccc3)C2)C1c1ccc(F)cc1` (stereo not shown) is lower in “% Inhibition @ 10 uM” value: 2.4% for the first, -1.37% for the second.

First: CCCOc1ccccc1C1CC(=O)NC(C)=C1C(=O)OCc1ccc(OC)cc1 (stereo not shown)
Second: CCCOC(=O)C1=C(C)NC(=O)NC1c1ccccc1Br (stereo not shown)
The “% Inhibition @ 10 uM” value of the first is higher: 1.97% for the first, -5.63% for the second.

First: CC1=C(C(=O)OCC(C)C)C(c2ccc(Cl)cc2)NC(=O)N1 (stereo not shown)
Second: CCOC(=O)c1c(N)nn(C(=O)C(C)C)c1-c1ccccc1
The “% Inhibition @ 10 uM” value of the first is higher: 4.79% for the first, -3.64% for the second.

Compared with `O=C(Cn1nc(Cc2cccnc2)c2ccccc2c1=O)N1CCN(C2CCCCC2)CC1`, `O=C(c1ccc(CS(=O)c2cccc(Cl)c2)o1)N1CCC(N2CCCCC2)CC1` (stereo not shown) is higher in “% Inhibition @ 10 uM” value: -4.69% for the first, 3.1% for the second.

First: Cc1cc(C)nc(NC(=O)COc2ccc(Cl)cc2Cl)c1
Second: Cc1ccc(NC(=O)CCSc2nc(C)cc(C)n2)cc1
The “% Inhibition @ 10 uM” value of the first is lower: -5.81% for the first, -5.19% for the second.

Going from `CCC(Sc1nc2cccnc2[nH]1)C(=O)N1CCCC1` (stereo not shown) to `O=C(C1COc2ccccc2O1)N1CCCC1` (stereo not shown), the “% Inhibition @ 10 uM” value falls from 4.43% to 3.61%.

Compared with `COc1ccc(N(CC(=O)Nc2ccccc2C(C)C)S(C)(=O)=O)c(OC)c1`, `COc1ccc(S(=O)(=O)N(C)CC(=O)Nc2ccccc2F)cc1` is lower in “% Inhibition @ 10 uM” value: -0.795% for the first, -6.25% for the second.

First: Cc1cc2c(c(S)n1)C(=O)O/C2=C\c1ccco1
Second: Cc1cc(C)n2nc(SCC(=O)NCc3ccco3)nc2n1
The “% Inhibition @ 10 uM” value of the first is higher: 67.6% for the first, 5.89% for the second.

Going from `COc1cccc(-c2nc(CS(=O)(=O)CC(=O)N3CCc4ccccc4C3)c(C)o2)c1` to `COc1ccc(OC)c(N(CC(=O)N2CCOCC2)S(=O)(=O)c2ccccc2)c1`, the “% Inhibition @ 10 uM” value falls from 3.19% to 1.57%.

First: CCOC(=O)c1cc2cccc(Cl)c2[nH]1
Second: CCCCN(C)C(=O)Cc1c(C(=O)O)[nH]c2ccc(Cl)cc12
The “% Inhibition @ 10 uM” value of the first is higher: -2.4% for the first, -6.58% for the second.

Going from `CCOP(=O)(CC(=O)O)c1ccccc1` (stereo not shown) to `CCN(C(=O)CCCC(=O)N(CC)c1ccccc1)c1ccccc1`, the “% Inhibition @ 10 uM” value rises from -5.9% to -0.413%.

Compared with `CCCCCc1ccc(-c2ccc(OC)cc2)nc1`, `COc1ccc(-c2csc(/C(C#N)=C\Nc3cccc(C)c3)n2)cc1` is lower in “% Inhibition @ 10 uM” value: -0.436% for the first, -0.661% for the second.

Compared with `COc1ccc(-c2c(C(F)(F)F)oc3cc(O)ccc3c2=O)cc1`, `COc1ccc(-c2cc3c(ccc4ccccc43)oc2=O)cc1` is higher in “% Inhibition @ 10 uM” value: -0.641% for the first, -0.591% for the second.

First: O=c1c2ccccc2nc2c3ccccc3c(N3CCCCC3)nn12
Second: CCc1c(-c2ccccc2)nc2ccccc2c1C(=O)N1CCC2(CC1)OCCO2
The “% Inhibition @ 10 uM” value of the first is higher: 15.1% for the first, -2.26% for the second.

First: N#CCC(=N)Nc1sc2c(c1C#N)CCCC2
Second: CCN(CC)C(=O)CSc1nc(C)cc(C)c1C#N
The “% Inhibition @ 10 uM” value of the first is lower: 11.6% for the first, 21.4% for the second.

Compared with `O=C1CC(c2ccc(S(=O)(=O)NCCOc3ccccc3)cc2)CN1` (stereo not shown), `CC(C)c1ccc(S(=O)(=O)c2cc3ccccc3oc2=O)cc1` is higher in “% Inhibition @ 10 uM” value: -2.5% for the first, 2.12% for the second.

First: Cc1ccc2c(c1)c1c(n2CCC#N)CCN(C)C1
Second: CCCN1CCN(C(=O)c2nc(-c3ccc(C)cc3)n3c2CCCCC3)CC1
The “% Inhibition @ 10 uM” value of the first is higher: 1.63% for the first, 0.589% for the second.

Going from `CCN(CC)CCn1c2ccccc2c2c(C)cc(=O)sc21` to `CCN(CC)Cc1ccccc1C(O)c1ccccc1` (stereo not shown), the “% Inhibition @ 10 uM” value falls from 1.17% to -1.72%.

Going from `CN1C(c2ccccc2)CC(C)(O)CC1c1ccccc1` (stereo not shown) to `O=C(CCc1ccccc1)NCC1(c2ccccc2)CCOCC1`, the “% Inhibition @ 10 uM” value rises from -4.11% to 13.3%.

Going from `COC(=O)c1cc(S(=O)(=O)N2CCN(Cc3ccc4c(c3)OCO4)CC2)cn1C` to `COc1cc(CN2CCN(Cc3ccc(OC)c(OC)c3)CC2)cc(OC)c1`, the “% Inhibition @ 10 uM” value rises from -5.86% to -5.19%.

Compared with `C=CCc1ccccc1OCCOc1c(OC)cc(/C=C2/C(=N)N3C=CSC3=NC2=O)cc1OC`, `C=CCNC(=O)CCCc1nc(-c2cc(OC)c(OC)c(OC)c2)no1` is higher in “% Inhibition @ 10 uM” value: -5.28% for the first, -4.75% for the second.

First: O=C(/C=C/c1ccc(Cl)cc1)OCC(=O)c1ccc(Br)cc1
Second: CCOc1ccccc1/C=C1N=C(/C=C/c2ccc(Cl)cc2)OC/1=O
The “% Inhibition @ 10 uM” value of the first is lower: 1.76% for the first, 2.44% for the second.

Compared with `Cc1ccc(N(CC(=O)NCc2ccncc2)S(=O)(=O)c2ccc(Cl)cc2)cc1C`, `Cc1ccc(S(=O)(=O)Cc2nc(-c3ccc(C(=O)NCc4cccc(C)c4)cc3)oc2C)cc1` is lower in “% Inhibition @ 10 uM” value: 0.563% for the first, 0.28% for the second.

Compared with `CCCCC(NC(=O)[C@H](CC(C)C)NC(=O)OCc1ccccc1)C(=O)c1nnc(-c2ccncc2)o1` (stereo partly shown), `CC(=O)Nc1c(-c2ccccc2)nc2ncccn12` is higher in “% Inhibition @ 10 uM” value: -5.2% for the first, 2.92% for the second.

Compared with `Cc1ccc(C2CC(=O)NC(SCC(=O)Nc3ccc(Br)cc3)=C2C#N)s1` (stereo not shown), `CC1CCCC(C)N1c1nnc(NC(=O)c2cc(-c3ccc(Br)cc3)on2)s1` (stereo not shown) is higher in “% Inhibition @ 10 uM” value: -1.64% for the first, -1.6% for the second.

First: CC(C)NC(=O)c1cnn2c(C(F)(F)F)cc(-c3ccc(Br)cc3)nc12
Second: Cc1nc2c(-c3ccc(F)cc3)c(C)nn2c(C)c1CCC(=O)O
The “% Inhibition @ 10 uM” value of the first is higher: -0.891% for the first, -2.83% for the second.

Going from `CCOc1ccccc1C(=O)NC(CC)c1ccc(C)cc1` (stereo not shown) to `COc1cccc(NC(=O)c2ccccc2Br)c1`, the “% Inhibition @ 10 uM” value falls from 4.83% to 0.035%.

Going from `C=CCNC(=O)c1ccc(Cn2c(=S)[nH]c3c([nH]c4ccc(OC)cc43)c2=O)cc1` to `COc1ccc(C2NCCc3c2[nH]c2ccccc32)c(OC)c1` (stereo not shown), the “% Inhibition @ 10 uM” value falls from 1.15% to -1.8%.

Going from `O=c1c(Oc2ccccc2Br)coc2cc(O)ccc12` to `CCOc1ccccc1N1C(=O)c2cccnc2C1=O`, the “% Inhibition @ 10 uM” value rises from -4.93% to -3.34%.

First: O=C(O)CC(CNS(=O)(=O)c1cccc2nsnc12)c1ccccc1 (stereo not shown)
Second: O=C(O)Cn1c(SCCOc2ccccc2F)nc2ccccc21
The “% Inhibition @ 10 uM” value of the first is lower: -1.24% for the first, 13.2% for the second.

First: CC1=C(C(=O)N2CCCCC2)C(c2ccc(C(F)(F)F)cc2)C2=C(O)CC(C)(C)CC2=N1 (stereo not shown)
Second: O=C(c1cccs1)c1coc2ccc(O)c(CN3CCCCC3)c12
The “% Inhibition @ 10 uM” value of the first is higher: 3.45% for the first, -2.39% for the second.

Going from `NS(=O)(=O)c1ccc(CCNC(=O)CNS(=O)(=O)c2cccs2)cc1` to `Cc1ccc(CCNC(=O)Cn2ncn3c(cc4sccc43)c2=O)cc1`, the “% Inhibition @ 10 uM” value rises from -6.4% to 3.4%.

Compared with `c1ccc(CN2CCC(NC3CCSC3)CC2)cc1` (stereo not shown), `Cc1cc(=O)n2nc(N3CCCC3C(=O)NC3CCN(Cc4ccccc4)CC3)sc2n1` (stereo not shown) is higher in “% Inhibition @ 10 uM” value: -3.6% for the first, -0.281% for the second.

Compared with `CCOc1ccc2c(c1)C(SCC(=O)N1CCC3(CC1)OCCO3)CC1(CCCCC1)O2` (stereo not shown), `CCOc1ccc(CN2CCN(c3ccc(C(C)=O)cc3)CC2)cc1` is higher in “% Inhibition @ 10 uM” value: -5.82% for the first, -2.36% for the second.

Compared with `CCCCn1nnnc1NCc1cc(Cl)c(OC)c(OC)c1`, `COc1cc2c(cc1OC)CN(C(=O)CSc1nc3c(cc1C#N)CCC3)CC2` is higher in “% Inhibition @ 10 uM” value: -4.11% for the first, 4.28% for the second.

Compared with `CCOc1ccc(/C=C2\SC(N3CC(C)OC(C)C3)=NC2=O)cc1` (stereo not shown), `COc1ccc(/C=N/OCC(=O)Nc2nc3ccccc3s2)cc1` is lower in “% Inhibition @ 10 uM” value: 3.59% for the first, 0.189% for the second.

First: CCN(CC)c1nc(NC(C)(C)C)nc(NC(C)(C)C)n1
Second: O=c1[nH]c(=O)c2nc3cc([N+](=O)[O-])ccc3nc2[nH]1
The “% Inhibition @ 10 uM” value of the first is lower: -2.51% for the first, 2.65% for the second.

Going from `Cc1ccc(C(=O)Nc2ccc(N3CCOCC3)cc2)cc1[N+](=O)[O-]` to `Cc1cc2cc(-c3ccccc3)cn2c(N2CCOCC2)c1C#N`, the “% Inhibition @ 10 uM” value rises from -0.687% to 2.36%.

Going from `CCCC(C(=O)N1CCOCC1)N1C(=O)C2C3C=CC(C3)C2C1=O` (stereo not shown) to `O=S(=O)(c1cnccc1N1CCN(CCO)CC1)N1CCOCC1`, the “% Inhibition @ 10 uM” value rises from -4.48% to -2.74%.

Going from `Cc1nnc(NC(=O)[C@H]2O[C@@H]3OC(C)(C)O[C@@H]3[C@H]3OC(C)(C)O[C@H]32)s1` to `CC1CC2(C)CC(C)C1(COC(=O)Nc1ccccc1)CO2` (stereo not shown), the “% Inhibition @ 10 uM” value rises from -5.36% to 5.01%.

First: O=C(NCCc1cccs1)C1CCN(c2nc3ccccc3n3cccc23)CC1
Second: O=C(NCCCc1nc2ccccc2n1Cc1c(F)cccc1Cl)c1ccco1
The “% Inhibition @ 10 uM” value of the first is higher: -2.58% for the first, -2.99% for the second.

Compared with `CC1(C)CC(=O)C2=C(C1)N(c1nc[nH]n1)C(N)=C(C#N)C2c1cccs1` (stereo not shown), `CC(C)Cn1c(=O)c(C#N)cc2c(=O)n3ccccc3nc21` is higher in “% Inhibition @ 10 uM” value: -6.51% for the first, 2.73% for the second.

Compared with `CCOCCCNC(=O)C1c2ccccc2C(=O)N2CCc3ccccc3C12` (stereo not shown), `COc1ccccc1N1CCN(C(=O)CCN2C(=O)c3cccc4cccc(c34)C2=O)CC1` is higher in “% Inhibition @ 10 uM” value: -3.77% for the first, 5.24% for the second.

Going from `CC1CCCCN1C(=O)c1nn(C)c2c1CSc1ccccc1-2` (stereo not shown) to `COc1ccc(/C=C(\NC(=O)c2ccc(OC)cc2)C(=O)N2CCCCC2)cc1`, the “% Inhibition @ 10 uM” value falls from 7.85% to 0.674%.

Going from `COc1ccc(C(=O)N(Cc2cccs2)C2CCS(=O)(=O)C2)cc1` (stereo not shown) to `COc1ccccc1N1CCN(C(=O)CN(c2cc(C)cc(C)c2)S(=O)(=O)c2ccccc2)CC1`, the “% Inhibition @ 10 uM” value falls from 5.3% to -1.28%.

First: Clc1ccc(-c2noc3ncnc(N4CCOCC4)c23)cc1
Second: c1cc(-c2nn[nH]n2)ccc1CN1CCOCC1
The “% Inhibition @ 10 uM” value of the first is higher: -0.495% for the first, -4.07% for the second.

First: Cc1nc2ccn(Cc3ccccc3)c(=O)c2cc1C(=O)O
Second: O=C(O)CNc1ncnc2oc(-c3ccccc3)c(-c3ccccc3)c12
The “% Inhibition @ 10 uM” value of the first is higher: -1.25% for the first, -4.12% for the second.
